The results in this text go back to PubChem BioAssay AID1240 (Sanford-Burnham Center for Chemical Genomics, 2008).

The whole screen tested about 50,000 compounds, of which about 800 (1.6%) showed an effect of 50% or more. The list shows a part of the results.

In the experiment the target is Bcl-2-like protein 10 (Homo sapiens) (UniProt Q9HD36). Nature of the experiment: TR3 peptide-Bcl-B binding displacers, biochemical primary FP assay, phenotype converters (AID 1240).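 Further: 0% = Bcl-B with tracer peptide and DMSO and 100% = tracer peptide lacking Bcl-B.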 The note with it: GST-Bcl-B / FITC-TR3 peptide fluorescence polarization; stronger effect = higher value; compound at 3.75 mg/L.
Sequence of UniProt Q9HD36 (Q9HD36 whole entry, looked up): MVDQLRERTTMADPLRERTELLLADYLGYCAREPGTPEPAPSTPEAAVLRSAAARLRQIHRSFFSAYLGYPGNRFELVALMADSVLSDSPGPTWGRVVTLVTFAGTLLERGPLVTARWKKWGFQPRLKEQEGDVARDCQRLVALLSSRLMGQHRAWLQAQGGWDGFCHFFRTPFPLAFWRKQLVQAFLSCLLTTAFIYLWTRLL
Turning to `O=C1CS/C(=N\N=C\c2ccc([N+](=O)[O-])cc2)N1c1ccc(O)cc1`, the displacement is -3.5%.
Next, `O=C(Nc1ncc(Cc2cccc(Cl)c2Cl)s1)C1CC1`: 13.7%.
Next, `COc1ccc(NC(=O)c2cc(NC(=O)c3ccccc3)cc(C(=O)Nc3ccc(OC)cc3)c2)cc1`: 2%; `CCOc1ccc(OCC)c(S(=O)(=O)N2CCN(C)CC2)c1`: 18.4%.
`Cc1ncc(C[n+]2csc3ccccc32)c(N)n1`: the displacement was found to be 8%.
Next, `O=C(c1ccc([N+](=O)[O-])cc1)N1CCN(CC2CC=CCC2)CC1` (stereo not given): -14.6%; `O=C(Nc1sc2c(c1C(=O)Nc1ccc(Cl)cc1)CCC2)c1ccc([N+](=O)[O-])cc1`: 3.7%.
Next, `N#Cc1c(/N=C\c2ccc(N3CCOCC3)c([N+](=O)[O-])c2)sc2c1CCCC2`: 81.3%; `O=C(O)c1ccccc1C(=O)Nc1ccc2c(c1)C(=O)c1ccccc1C2=O`: 14.4%.
Next, `CCOC(=O)c1c(-c2ccccc2)csc1NC(=O)c1sc2ccccc2c1Cl`: 3.5%; `Cc1ccc(C(=O)N/C(=C\c2cccc([N+](=O)[O-])c2)C(=O)Nc2ccc(C)cc2C)cc1`: -4.4%.
As to `COc1ccc2c(c1)CC(C1(O)C(=O)N(C)c3ccccc31)C2=O` (stereo not given), the displacement is 7%.
With `Cc1cc(Cl)ccc1OCC(=O)NCCc1nc2ccccc2[nH]1`, the displacement worked out at 15.5%.
Next, `Cc1ccc(/C(O)=C2\C(=O)C(=O)N(c3ccc(O)cc3)C2c2cccc([N+](=O)[O-])c2)cc1` (stereo not given): 5.5%; `O=C(CCN1C(=O)S/C(=C\c2ccc(Cl)cc2)C1=O)Nc1ccccc1`: -5.3%.
In the case of `Cc1[nH]n(-c2ccccc2)c(=O)c1/C=N/NC(=O)COc1ccc(C(C)(C)C)cc1`, the displacement is -4%.
Next, `CCCCOc1ccc(C2Nc3ccccc3NC3=C2C(=O)CC(C)(C)C3)cc1` (stereo not given): 5.9%.
Take `CC1CCc2c(sc(NC(=O)CCc3ccccc3)c2C(N)=O)C1` (stereo not given): the displacement is 11.3%.
Next, `NS(=O)(=O)c1ccc(N/C=C/C(=O)c2ccco2)cc1`: 74.8%; `Cc1cc(N2CCN(C/C=C/c3ccccc3)CC2)nc2ccccc12`: -22.5%.
Next, `Cc1cc(C)cc(NC(=O)CN(c2cccc(C(F)(F)F)c2)S(C)(=O)=O)c1`: 7.2%; `Cc1ccccc1N1C(=O)/C(=C/c2cc(C)n(-c3cccnc3)c2C)C(=O)NC1=S`: 42.1%; `O=C1NC(=O)N(c2ccc(Cl)cc2)C(=O)/C1=C\c1cccc(O)c1`: 10.5%.
Regarding `CCCCCCOc1ccc(N2C(=O)CC(NCc3ccc(OC)cc3)C2=O)cc1` (stereo not given), the displacement stood at 4.5%.
Next, `C=CCNC(=O)CN(c1cccc(OC)c1)S(=O)(=O)c1ccccc1`: 2.6%.
Next, `Cc1ccc(CN2CCN(N=Cc3ccccc3Br)CC2)c(C)c1`: 11.2%; `COc1ccc(S(=O)(=O)N(CCc2ccccc2)CC(=O)Nc2cccc(Cl)c2C)cc1`: -20.5%.
Next, `CC(Nc1n[nH]c(=O)[nH]c1=O)C(=O)OCc1ccccc1` (stereo not given): -2.7%; `CCOc1ccccc1NC(=O)CN1C(=O)/C(=C/c2cccc(Br)c2)SC1=S`: 78.7%.
On to `O=C(Nc1ccccc1)C1CC(=O)N(c2ccccc2)C1` (stereo not given), for which the displacement is -5.5%.
Next, `CC1CCCCN1S(=O)(=O)c1ccc(F)cc1` (stereo not given): -11.3%.
Next, `COc1ccc(S(=O)(=O)Nc2cc(C)ccc2OC)cc1Br`: 12.8%.
Next, `COC(=O)C1=C(C)NC2=C(C(=O)CC(c3ccccc3)C2)C1c1cc(OC)c(OC)cc1[N+](=O)[O-]` (stereo not given): 21.8%.
Take `COc1ccc(NC(=O)C(O)(c2ccccc2)c2ccccc2)cc1`: the displacement came out at 11.1%.
Next, `COc1ccc(OC)c(C=NN2CCN(Cc3ccccc3Cl)CC2)c1`: -4.7%; `CSc1ccc(C=Nc2ccc(S(N)(=O)=O)cc2)cc1`: 4.9%.
In the case of `Cc1c(C(=O)Nc2ccc(NC(=O)c3ccc(C(C)(C)C)cc3)cc2)cccc1[N+](=O)[O-]`, the displacement came out at 1.2%.
For `Cc1ccc(N(CC(=O)N/N=C/c2ccccc2)S(=O)(=O)c2ccccc2)cc1`, the displacement came out at 4.2%.
Next, `CCC12c3ccccc3C(c3ccccc31)C1C(=O)N(c3ccc4c(c3)OCO4)C(=O)C12` (stereo not given): -1.9%; `COc1ccc(/C(N)=N/OC(=O)c2ccco2)cc1`: 4.9%.
With `Cc1ccc(C(=O)c2ccc(Br)c([N+](=O)[O-])c2)cc1`, the displacement came to 0%.
Next, `COc1ccc(N2C(=O)CSC23C(=O)Nc2ccccc23)cc1` (stereo not given): 13.1%; `COC(=O)c1ccc(/C=C2\SC(=Nc3cccc(Cl)c3C)NC2=O)cc1`: 26.5%.
Consider `Cc1cccc(/C=C2/SC(=O)N(CN3CCCCC3)C2=O)c1`, for which the displacement worked out at 7.1%.
Next, `CC1=C(C(=O)Nc2ccc(C)cc2)C(c2ccc(Br)cc2)NC(=S)N1` (stereo not given): 8.6%; `COc1cc(/C=c2\sc3nc4c(C)cc(C)cc4n3c2=O)cc(Br)c1O`: -52.6%; `CCC(CO)NC1=C(Cl)C(=O)c2ccccc2C1=O` (stereo not given): 42.3%.
`O=C(NN1C(=O)C2C(C1=O)C1C=CC2C12CC2)c1ccc(Cl)cc1Cl` (stereo not given): the displacement came to 3.2%.
Next, `CC(C)CNC(=O)/C(=C/c1ccc(F)cc1)NC(=O)c1ccccc1`: 14.6%.
Next, `COc1ccccc1C/C(N)=N/OC(=O)Cc1ccc(Cl)cc1`: 0.4%; `C=CCN1C(=O)/C(=C\c2cc(OC)ccc2OC)C(=O)NC1=S`: 1.4%; `O=C(c1ccc(F)cc1)N1CCN(c2ccc(Cl)cc2[N+](=O)[O-])CC1`: -4.5%.
Next, `CC1(C)CC(NC(=O)c2cccc(I)c2)CC(C)(C)N1`: 12.3%; `Cc1ccc(NCC(=O)N/N=C\c2ccc[nH]2)cc1`: -4.6%.
Regarding `O=[N+]([O-])c1cccc(S(=O)(=O)N2CCCC2)c1`, the displacement was -0.6%.
With `CCn1c2ccccc2n2cc(-c3ccc([N+](=O)[O-])cc3)nc12`, the displacement was -8%.
Regarding `CCOc1cc(/C=C2\SC(=S)N(c3cccc(C)c3C)C2=O)ccc1O`, the displacement is -8.8%.
With `Cc1occc1C(=O)Nc1ccc(I)cc1C(=O)O`, the displacement amounted to 22.7%.
Next, `O=C(c1cc(-c2ccc(Br)cc2)nc2ccccc12)N1CCN(c2ccc(F)cc2)CC1`: 0.3%.
Next, `ON1C(c2ccccc2)CC2(O)c3nonc3CCC12` (stereo not given): 0.3%; `Cc1ccc(CCC(=O)Nc2ncc(Cc3cccc(Cl)c3)s2)o1`: 15.9%; `O=C(CSc1ccc(Cl)cc1)Nc1ccc(F)c(Cl)c1`: -11.1%.
In the case of `Cc1ccc(C2=NOC(=O)/C2=C\C=C\c2ccccc2)cc1`, the displacement is 9.5%.
Next, `Cc1c(-c2nc(-c3ccc(Cl)cc3)no2)cccc1[N+](=O)[O-]`: -4.7%; `CC12C(=O)C(C)(C(c3ccccc3)=C1c1ccccc1)C1C(=O)N(c3ccccc3Cl)C(=O)C12` (stereo not given): 4.4%.
Next, `COC(=O)C1=C(C)NC(=O)CC1c1c(F)cccc1Cl` (stereo not given): 5.7%.
Next, `Cc1ccc(C2=N/C(=C\c3ccc([N+](=O)[O-])cc3)C(=O)O2)cc1`: -0.4%; `COc1ccc(C(=O)/C=C/c2ccc(OC)c3cccc(O)c23)cc1OC`: -13.4%.
As to `O=C(Oc1cccc(/C=N/NC(=O)c2ccccn2)c1)c1cccc(F)c1`, the displacement is -4.2%.
Next, `CC1=C(C#N)C(=O)NC(=O)/C1=C\c1ccc(-c2cccc(Cl)c2)o1`: 24.7%; `CC(=O)N1CCN(c2cc(N3CCOCC3)c(F)cc2[N+](=O)[O-])CC1`: -17.4%.
In the case of `O=C(C1=C(Nc2ccc(Br)cc2)CCCC1)C(F)(F)F`, the displacement is 5.4%.
`CCOc1ccccc1C(=O)N/N=C/c1cn(-c2ccccc2)nc1-c1ccc(OC)cc1`: the displacement is -5.8%.
Turning to `CCOCCOC(=O)c1cccc(NC(=O)/C=C/c2ccccc2)c1`, the displacement was -3.9%.
Next, `Cc1cc(C)n(C2=NNC(n3nc(C)cc3C)=NN2)n1`: 1.6%.
Consider `O=C(Nc1ccc(I)cc1Cl)c1cccc(OCc2ccccc2)c1`, for which the displacement was -4.2%.
In the case of `CC1(C)CC(=O)C2=C(C1)Nc1ccccc1NC2c1cccc(C(F)(F)F)c1` (stereo not given), the displacement was -10.1%.
Next, `O=C(O)C1CSC(c2ccc(Cl)c([N+](=O)[O-])c2)N1` (stereo not given): -0.9%.
For the compound `COc1ccc2oc(=O)c(-c3csc(Nc4ccccc4)n3)cc2c1`, the displacement was -13.5%.
On to `COc1ccc(NC(=O)C2CC2)c2ncccc12`, for which the displacement turned out to be 8%.
For `C=CCN1C(=O)/C(=C\c2ccc(OC)cc2)C(C(=O)OC)=C1C`, the displacement stood at 1.4%.
Next, `O=[N+]([O-])c1ccc(/C=N/Nc2nnc(-c3ccccc3)c(-c3ccccc3)n2)cc1`: 1.6%; `COc1ccc(N2C(=O)c3ccccc3NC2c2ccccc2F)cc1` (stereo not given): 11.6%; `O=C1CCC(=O)N1c1ccc(Oc2cccc(Oc3ccc(N4C(=O)CCC4=O)cc3)c2)cc1`: 4.4%.
As to `CC1C(c2ccc(Cl)cc2)NC(c2ccc(Cl)cc2)C(C)C1(C)O` (stereo not given), the displacement is -8%.
Next, `O=C(CN1C(=O)c2ccccc2C1=O)Nc1ccc(F)c(F)c1`: 9.6%; `CSc1nc(N)c(C#N)c(-c2ccccc2)c1C#N`: -11%.
Next, `COc1ccc2oc(=O)c(C(=O)Nc3cccc(C(C)=O)c3)cc2c1`: 0.2%.
Next, `O=C(O)CN1C(=O)/C(=C\c2cc([N+](=O)[O-])ccc2Cl)SC1=S`: 28.4%; `COc1cc(/C=C2\SC(=S)N(c3ccc(F)cc3)C2=O)cc(OC)c1OC`: 3.3%.
For `COc1cc(NC(=O)c2ccc3ccccc3c2)c(OC)cc1Cl`, the displacement is -10.9%.
On to `COc1cc(/C=c2\sc3nc4ccccc4n3c2=O)ccc1OS(=O)(=O)c1ccccc1[N+](=O)[O-]`, for which the displacement was found to be 1.7%.
Next, `Cc1ccc(Nc2nc3nonc3n3cnnc23)cc1C`: -5.9%; `COc1ccc2noc3c2c1C(=O)c1ccccc1-3`: 127%.
As to `N#CC1=C(N)Oc2c(ccc3ccccc23)C1c1ccc2c(c1)OCO2` (stereo not given), the displacement is -6%.
Regarding `COC(=O)c1ccc(/C=C2/SC(=S)N(CC(=O)O)C2=O)cc1`, the displacement worked out at 15%.
Turning to `CCOC(=O)c1c(NC(=O)Cc2ccc(OC)cc2)sc2c1CCN(C(=O)OCC)C2`, the displacement is -6%.
On to `O=C1c2ccccc2C2(c3ccc(Cl)cc3)N1CCN2C(=S)Nc1ccccc1` (stereo not given), for which the displacement is -12.9%.
Regarding `CCOC(=O)c1c(NC(=O)Cn2nc(C(F)(F)F)cc2C)sc2c1CCC(C)C2` (stereo not given), the displacement was 16.8%.
As for `CC(C)(C)c1cc(C(=O)N/N=C/c2ccc([N+](=O)[O-])cc2)n[nH]1`, the displacement was -4.7%.
As to `COc1ccc(/C=C/C(=O)Nc2cc(C)ccc2C)cc1`, the displacement came to 17.1%.
Turning to `CCC(=O)N1CCN(CCN=CC2=C(O)CC(C)(C)CC2=O)CC1`, the displacement was found to be 10.3%.
Next, `Cc1ccccc1-c1noc(-c2cccs2)n1`: -5.9%.
On to `Nc1nnnn1/N=C/c1ccc(C=O)cc1`, for which the displacement came out at 12.4%.
As to `COc1cc2c(cc1OC)-c1nnc(-c3cccs3)n1C(C)(C)C2`, the displacement is 2.4%.
